Experimental data published in PubChem BioAssay (NCI).
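These data come from cells grown in 96-well plates and exposed to compound for 48 hours at five concentrations. GI50 = concentration required for 50% inhibition of growth. At the TGI there is no net growth.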

Tests used:
Assay in all cases: inhibition of tumour cell growth, NCI panel, 48 h
NCI-H23 lung = tested on: NCI-H23 lung
UACC-257 melanoma = tested on: UACC-257 melanoma
CCRF-CEM leukemia = tested on: CCRF-CEM leukemia
HOP-92 NSCLC = tested on: HOP-92 NSCLC
NCI-H226 lung = tested on: NCI-H226 lung
SR leukemia = tested on: SR leukemia

NC(=O)CCc1ccccc1Oc1nccc(-c2c(-c3ccc(F)cc3)ncn2C2CCNCC2)n1
GI50 (NCI-H23 lung): > 25 µM
TGI (NCI-H23 lung): > 25 µM
GI50 (UACC-257 melanoma): > 25 µM
TGI (UACC-257 melanoma): > 25 µM
GI50 (CCRF-CEM leukemia): > 25 µM
TGI (CCRF-CEM leukemia): > 25 µM
GI50 (HOP-92 NSCLC): > 25 µM
TGI (HOP-92 NSCLC): > 25 µM
GI50 (NCI-H226 lung): > 25 µM
TGI (NCI-H226 lung): > 25 µM
GI50 (SR leukemia): > 25 µM
TGI (SR leukemia): > 25 µM
